From the supplement of paper PMC11417369
The other results are listed elsewhere or left out.

System: PfSIP2 AP2 domain 1 (GST-tagged)
Test: gcPBM binding intensity (ln(normalized median fluorescence intensity)); higher = stronger DNA binding
Method in brief: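 Binding intensity is the highest Masliner-normalised natural-log median intensity over replicate spots in either probe orientation. To obtain it, GST-tagged P. falciparum DNA-binding domains made in E. coli were incubated for 1 h on an Agilent 4 × 180k array of primer-extended double-stranded 36-bp intergenic genomic probes plus negative controls. Detection used Alexa488 anti-GST antibody with scanning at 488 nm.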

| Sequence | gcPBM binding intensity (ln) |
| --- | --- |
| TCAGGAATATAAAGTGCACACATAATTTGGGGGCAA [CACACA_site7974] | 11.2 |
| TATATAAGGATATATACACACATATAGGTATTTATA [CACACA_site7092] | 6.94 |
| TTTTAAAAAAATAAAAAATAATAAAAAAAATAAAAA [CACACA_negctrl_site1693] | 6.76 |
| AATATGATTATTACCCGTACATATTACCTTATGGTA [XGTACX_site1714] | 6.78 |
| AATGATATTATCTCTTCACACACTCACATACAGACA [CACACA_site8335] | 7.03 |
| AAAAATAAATAAAGTGGTACATAAAAAAGAGAAATT [XGTACX_site874] | 7.08 |
| GTGCATATGTAGATATGTACATATTTATTTATTATT [XGTACX_site7343] | 9.21 |
| GCGGCGGTATCATGCACACGTATATATTGTAACAGT [CACACA_site4958] | 7.43 |
| TCATTGAAAAAAATGTGTACTCATCAAGTATATATT [XGTACX_site6430] | 7.29 |
| TTTACAGATACATTCACACATAAATTCATGTATAAT [CACACA_site5387] | 7.03 |
| ATATATAATTTTTGTTGTACATTATAAAAATAATTA [XGTACX_site2738] | 7.2 |
| ATTGTTATGAGAACAGCACACAAGCTACATCATATA [CACACA_site8192] | 6.99 |
| TTTTTTTTTTTTTCTTCACACACAGTACTACTATTT [CACACA_site8759] | 7.01 |
| TTAGCTTTTTTTTAAACATGCAACTACTTGATCCAC [TGCATGCA_site1017] | 7.07 |
| TATTTATTATTATGTACACACTATATTAAAACATAA [CACACA_site4549] | 7.08 |
| AGTATACGCAGACACACACACACATATATATATATA [CACACA_site1735] | 9.65 |
| TATGTGAATCCTAAGTGTACACATCTTACATATATA [XGTACX_site2506] | 7.46 |
| GGTATATGCATAAAGAGTACGTAACTTCTTTTTGTT [XGTACX_site6344] | 7.31 |
| ATAAGATGATTAATTACACACTTTATAGGATATTTA [CACACA_site1711] | 6.76 |
| AAATGTGTAAATATAATTAGTTTCACAAAACAAATA [GTGCAC_negctrl_site543] | 6.78 |
| TATATAATATTCTACACACCAACAACAAACATATAT [CACACA_site567] | 7.16 |
| ATATTCTGATTTTAGATGCACTTCGTTAACAAAATA [GTGCAC_site9958] | 7.93 |

| Sequence | gcPBM binding intensity (ln) |
| --- | --- |
| ATATATATATTTATATGTACATAATATAAAATTTCT [XGTACX_site3720] | 8.43 |
| TTATATATATGTGTATGTACATATATATATATATAT [XGTACX_site1141] | 9.54 |
| AAAAGAATAATAATTTATGTATATTAATTAAAGAAT [XGTACX_negctrl_site402] | 6.94 |
| TATCATATATTATATGCACACATGTTTTTCAAGAAT [CACACA_site1892] | 7.6 |
| AAACGTAACATATATATATATATATATAAGATATAT [CACACA_negctrl_site126] | 7.85 |
| ATAAATCTACACCGCACACAAAAACAACAAATATTA [CACACA_site5396] | 7.3 |
| AATGAATATATATAAATATATATATATATATATATA [CACACA_negctrl_site1494] | 9.61 |
| ATATTTGTATAAATTGCACACTTTATTTTTTTTAAG [CACACA_site1558] | 6.97 |
| ATGTTATTACATAATTGTACATTTTGAGCAATTAAG [XGTACX_site4640] | 6.85 |
| AAATTCAATTTGCGCTGTACATGAAGATATAAATTT [XGTACX_site4844] | 6.9 |
| ATACCTGTTGTGTTACGTACATAATTTTAATGTTTG [XGTACX_site8181] | 7.13 |
| AAAAAAAACACGCGCACACACACACCCACAGACACA [CACACA_site5253] | 7.1 |
| TATATATATAAATACACACACACACCCCAAAGCGTA [CACACA_site4211] | 8.01 |
| TATTTTTTAAAAAATTATAAATAAAATTATATTACG [CACACA_negctrl_site324] | 7.04 |
| TATAATATATTCACTCGTACATATTTAATAATATCT [XGTACX_site6209] | 7.03 |
| ACAGTATATTAAAAAATACACACGTATTATATCTAC [CACACA_site2640] | 6.82 |
| ATTTTATTTTTGTGCACACTGATAAATTGAAAAGAG [CACACA_site2948] | 10.1 |
| TATATATATATAATATGTACATATATTAAGCATTTT [XGTACX_site4470] | 8.79 |
| AAAAAAAAAAATTAAAGTACTAATTAAAATTATATG [XGTACX_site5289] | 6.64 |
| TTTTAATTAAATAAATGTACTCATTCTATTATTTAT [XGTACX_site3032] | 6.98 |
| ATAAATTTTTTATGAACACACAAATACCCACGCTCA [CACACA_site2659] | 7 |
| ATGTATAAACAAAAGGGTACATATATATATATATAT [XGTACX_site2087] | 9.03 |

| Sequence | gcPBM binding intensity (ln) |
| --- | --- |
| AGAAAAATTACAAAATGTACATAATGTGTTATTAAT [XGTACX_site7877] | 6.92 |
| ATTAAGTACTAAAAAGTGCAGTTCGGTACTGTGCTT [GTGCAC_site9755] | 8.08 |
| AAGTACATACATAAAACACACACATATATATATATA [CACACA_site8541] | 9.76 |
| AATAAAAAACATGAAAGTACTTTAAAAAAGGTAATA [XGTACX_site1897] | 6.94 |
| AATATATAAATCAATAGTACATATATATATATATAT [XGTACX_site3898] | 9.55 |
| ATTAAATATGAGGGAACACACACATGATATATAAAT [CACACA_site8755] | 6.98 |
| TTATATAAAGAATGTACACACAGAAATGCACCCACA [CACACA_site2282] | 12.2 |
| TTATATTTATAAAGGTGTACCTTAAAATGATTTTAC [XGTACX_site3774] | 6.82 |
| AAAATTAAATAAAAATGTACAGAAATATTATATGAA [XGTACX_site5695] | 7.11 |
| ATATATTATATTAATTGTACATAAAAAAGAGAAAAA [XGTACX_site3366] | 7.08 |
| CCAAAAAATATATGTAGTACTACATTATTAAATATG [XGTACX_site5128] | 7.32 |
| ATAATATCTTCTTTTTTTTTTTTTTTTTTTTTTTTT [CACACA_negctrl_site1005] | 8.6 |
| AAAAAAAAAAAAAAAAGTACATATATATATAATTAT [XGTACX_site7836] | 7.42 |
| AAATGATGCATTTGTCATTAAAATTGTGAAATATTA [CACACA_negctrl_site231] | 6.75 |
| ATATATATATAATGTGTACACACATATGTATTTATA [CACACA_site8170] | 8.99 |
| TAATTAAGATGATAAAAATTGAAAAAACAATTTTAA [CACACA_negctrl_site658] | 6.61 |
| TATAATAAAATATGTACACACATACAGACATATATA [CACACA_site6693] | 7.39 |
| AGAGTATATAAAGTAACACACAATAAAATAAAATAA [CACACA_site2328] | 6.9 |
| CATATAGTATAAATTTGTACATAAATATATATATAT [XGTACX_site7477] | 8.69 |
| TACATACACGGACACACACACATATATATATATATA [CACACA_site5883] | 9.4 |
| AAGAAATATATATATATATATATATATATATATGTA [TGCATGCA_negctrl_site442] | 8.04 |
| TAATTTTATATTAAAAGTACATAATAAAAACTATAA [XGTACX_site8779] | 6.99 |

| Sequence | gcPBM binding intensity (ln) |
| --- | --- |
| TTTAAAAACAAATATTGTACAAATTAAAATATATCA [XGTACX_site7220] | 6.99 |
| AGAGCATAATAAAACACACACATACATACAGATATA [CACACA_site4671] | 7.08 |
| TGATGATATAAAAACACACACATATAATATAATACT [CACACA_site1208] | 6.88 |
| CACTAATATATATACAGTACATAATAAAGTATATAA [XGTACX_site6875] | 6.95 |
| CTGTTTTACTTTAGTAGTACAATAAAAATATAAAAA [XGTACX_site2934] | 7.59 |
| TATTACCCATATTATACACACATATATTATATATAT [CACACA_site1567] | 7.75 |
| AAAAAAAAAAAACATACACACAAATATATACATACA [CACACA_site4011] | 6.99 |
| TAAATTTGTGGGATTTCACACAGGTTTATTTACATT [CACACA_site5455] | 6.42 |
| ATGTAGGTTAATTATTGTACGTAGGGGGTGTATATT [XGTACX_site3973] | 8.23 |
| TTCAGAGAATAAAAATGTACATATAATATTTTAAAA [XGTACX_site577] | 6.73 |
| CTCTTGTCATTTTGCACACACACATGTATAGGTTAT [CACACA_site3057] | 8 |
| TTTCTAATTTATATCACACACATATATTTATAGTAA [CACACA_site6280] | 7 |
| GTTTACTAATATTGCACACGAATATGAAAAAGAGAA [CACACA_site2897] | 7.61 |
| TTGCTTATTAAATGGGGTACATTATATATATATATA [XGTACX_site2515] | 8.8 |
| GTGTTAACTATTATGAGTACTTATGTATTAATTCAT [XGTACX_site7767] | 7.34 |
| ATTTATTTATACAAAGTGCAATATTTTGTTAAAGTC [GTGCAC_site9618] | 7.89 |
| AAACAAAATATGGTTCATGAGCAAAAGTTTATTTTG [XGTACX_negctrl_site531] | 6.7 |
| AATGTAAAATATAAATGTACATATATATATATATAT [XGTACX_site5071] | 9.17 |
| CTCTTTTCTTATAATACACACAGTAATATATATATA [CACACA_site1520] | 8.57 |
| TATAAAATACATTTATAATATATATATATATTTTTT [TGCATGCA_negctrl_site435] | 7.13 |
| ATATGAAATATATAAATATGTTTATATATATATATA [GTGCAC_negctrl_site94] | 9.1 |
| TGTGTTTATACGTTTTGTACATATTTTTATTTTGTA [XGTACX_site6425] | 6.91 |
